In all, about 110,000 compounds went through this assay and about 230 (0.21%) showed an effect of 50% or more. This is one part of the list.
target: DPAP1 (Plasmodium falciparum, UniProt Q8IIJ9); assay: primary screen, percent inhibition; read by cleavage of a fluorogenic dipeptide substrate; higher = more effect of the substance; set-up: species or system P. falciparum D10 trophozoite lysates; single well
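Also: 30 min substrate incubation versus DMSO and 10 µM JCP410 controls.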

Chain of DPAP1 (Q8IIJ9 whole entry, looked up): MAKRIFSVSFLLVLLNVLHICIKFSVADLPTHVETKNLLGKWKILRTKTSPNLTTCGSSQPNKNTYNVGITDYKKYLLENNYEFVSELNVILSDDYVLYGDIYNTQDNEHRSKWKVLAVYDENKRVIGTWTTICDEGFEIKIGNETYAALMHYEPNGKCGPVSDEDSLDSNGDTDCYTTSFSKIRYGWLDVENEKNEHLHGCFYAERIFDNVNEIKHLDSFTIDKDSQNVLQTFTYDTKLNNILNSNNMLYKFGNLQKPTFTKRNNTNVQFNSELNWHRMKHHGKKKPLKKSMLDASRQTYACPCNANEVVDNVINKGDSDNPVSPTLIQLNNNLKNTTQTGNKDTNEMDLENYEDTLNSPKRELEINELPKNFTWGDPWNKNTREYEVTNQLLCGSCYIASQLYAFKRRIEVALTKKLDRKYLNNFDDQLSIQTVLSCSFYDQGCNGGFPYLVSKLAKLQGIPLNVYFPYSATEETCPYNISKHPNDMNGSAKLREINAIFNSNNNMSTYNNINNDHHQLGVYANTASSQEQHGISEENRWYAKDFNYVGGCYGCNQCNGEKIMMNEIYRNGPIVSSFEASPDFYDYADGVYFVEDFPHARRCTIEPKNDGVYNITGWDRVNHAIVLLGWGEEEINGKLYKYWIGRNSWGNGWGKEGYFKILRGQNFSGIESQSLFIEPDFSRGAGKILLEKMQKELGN

SMILES	% Inhibition @ 10 uM [%]
Cc1c2c(nc3ccccc13)OC(C)C2 (centres unmarked)	-2.24
CCN(CC)CCN(C)Cc1ccccc1Br	0.162
CCOc1ccccc1/C=N\n1c(C)nnc1C	-0.339
CC1(C(=O)n2cnc3ccccc32)CC1(Cl)Cl (centres unmarked)	8.74
CC1=C(c2cccc(Br)c2)S(=O)(=O)N=C1NC1CCCCCC1	3.87
Nc1c(C(=O)c2ccc(Cl)cc2)sc2nc(-c3cccnc3)ccc12	8.05
COc1ccc(-c2nnc(SCC(=O)N3CCOCC3)o2)cc1OC	-5.29
Cc1nc2ccccc2n1CCc1nc2c3ccccc3nc(NCCCOC(C)C)n2n1	7.15
O=C1N=C(Nc2ccccc2C(=O)O)S/C1=C\c1ccco1	-0.473
CCNC(=O)c1cc2c(=O)n3ccccc3nc2n(Cc2ccco2)c1=N	5.17
Cc1ccc(C(=O)N/C(=C/c2ccc(-c3ccc(Br)cc3)o2)C(=O)NCCCN(C)C)cc1	1.63
COc1ccc(C)cc1N(CC(=O)N1CCCCC1)S(=O)(=O)c1ccc(C)cc1	2.25
Nc1nnc(N2CCN(Cc3ccccc3)CC2)s1	-0.887
Cc1ccc(C)n1-c1cccc(C(=O)O)c1	-5.51
Cc1ccc(S(=O)(=O)N(CC(=O)NCc2ccccn2)c2ccc(Br)cc2)cc1	4.11
O=C(NC12CC3CC(CC(C3)C1)C2)c1cccnc1	0.135
CC1=C(C(=O)Nc2ccccc2)C(c2ccc(N(C)C)cc2)n2ncnc2N1 (centres unmarked)	5.12
CC(=O)OCC12COC(c3cccnc3)C(C(C)=CC1C)C2C (centres unmarked)	-1.85
Nc1nc(CSc2ccccc2)nc(NCCc2ccccc2)n1	-2.19
Cc1ccc2oc(=O)c(C(=O)O)cc2c1	4.85
COc1cccc(NC(=O)c2ccccc2Cl)c1	5.29
Cc1cc(C(N)=O)c(C)s1	3.05

SMILES	% Inhibition @ 10 uM [%]
CN(C(=O)C12CC3CC(CC(C3)C1)C2)C1CCS(=O)(=O)C1 (centres unmarked)	0.51
CCCC1=C(C(=O)OCC)C(c2cc(Br)c(OC)cc2OC)C(C#N)=C(N)O1 (centres unmarked)	-3.13
OCC1CCCN(Cc2ccccc2F)C1 (centres unmarked)	-3.94
O=C1c2ccccc2C(=O)c2c(OS(=O)(=O)O)cccc21	-4.27
Cc1ccc(N2CCN(C(=O)c3ccccc3N)CC2)cc1	-5.21
O=C(c1ccc([N+](=O)[O-])cc1)C12CN3CN(CN(C3)C1)C2	-2.44
COCCN1Cc2cccc(C(=O)NCc3ccccn3)c2C1=O	-4.14
CC12CC3CC(C)(C1)CC(OCCNC(=O)c1cc4c(s1)-c1ccccc1OC4)(C3)C2	-12.6
CCc1nccn1S(=O)(=O)c1cc(OC)c(Cl)cc1OC	-1.17
CN(C)CCOC(=O)NS(=O)(=O)c1ccccc1Cl	-6.52
CCOc1ccc(CNc2nc3ccc(C(=O)c4ccccc4)cc3n3cnnc23)cc1OC	-8.48
Cc1ccc(S(=O)(=O)N(CC(=O)N2CCOCC2)c2ccccc2Cl)cc1	-4.31
C/C(=C\c1ccccc1)CN1CCN(c2cccc(Cl)c2)CC1	1.08
COc1ccc(-c2c/c(=N\CC(=O)NCC(=O)O)c3cc(C)ccc3o2)cc1	-0.169
COc1ccc(C2CC(=O)Nc3cc4c(cc32)OCO4)cc1 (centres unmarked)	1.93
N=C(N)NCCCC(NC(=O)c1ccccc1)C(=O)Nc1ccc2ccccc2c1 (centres unmarked)	-7.46
c1ccc(COCn2cnc3c4sccc4ncc32)cc1	2.22
O=C(Cc1ccccc1)NCC1(c2ccccc2)CCCC1	-0.436
CCOc1ccc(C(=O)Nc2cc(OC)c(Cl)cc2OC)cc1	-5.82
COc1ccc(CCn2c(SCC(=O)c3ccc(O)c(O)c3)nc3ccsc3c2=O)cc1OC	5.43
CCc1ccc(OCC(=O)Nc2nccs2)c(Br)c1	-13.7
CCOC(=O)c1c(NC(=O)c2ccco2)sc2c1CCCC2	11.6

SMILES	% Inhibition @ 10 uM [%]
CCN(/C=C1\C(=O)N(c2ccc(C)cc2)C(=O)c2ccccc21)CC	-1.28
CCCN1CCN(C(=O)c2ccc(CS(=O)Cc3ccc(Cl)cc3)o2)CC1 (centres unmarked)	2.3
CSc1ccc(C2C(C#N)=C(N)OC3=C2C(=O)CC(C)C3)cc1 (centres unmarked)	-4.94
Cc1ccc(C2c3c(oc4ccccc4c3=O)C(=O)N2c2nnc(C)s2)o1 (centres unmarked)	0.189
O=C(O)c1cccc(N2C(=O)c3ccc(Oc4ccc([N+](=O)[O-])cc4)cc3C2=O)c1	9.31
COc1cccc(C(=O)Nc2nc(-c3nnn(-c4cc(OC)cc(OC)c4)c3C)ns2)c1	1.11
O=S(=O)(c1ccc(-c2cc(C(F)(F)F)no2)s1)N(Cc1ccco1)C1CCCC1	3.9
Oc1ccc(Oc2nc(N3CCCCC3)nc(N3CCCCC3)n2)nn1	5.5
Clc1ccc(-c2noc3ncnc(NCc4cccnc4)c23)cc1	-3.95
COc1ccc(C(CC(=O)c2ccc(Br)cc2)Sc2ccccc2N)cc1 (centres unmarked)	-8.12
O=c1c(-c2nc3ccccc3[nH]2)coc2cc(O)ccc12	8.45
Cc1c(CNC(=O)c2cc3nc(-c4ccc(Cl)s4)cc(C(F)(F)F)n3n2)cnn1C	-2.45
CN(C)c1ccc(CN(C(=O)c2ccco2)C2CCS(=O)(=O)C2)cc1 (centres unmarked)	-5.41
O=C(O)[C@H](Cc1cc2ccccc2[nH]1)N1C(=O)c2ccccc2C1=O	-4.69
CCOC(=O)C1CCN(Cc2ccc3ccccc3c2)CC1	-5.57
CC(C)C[C@H](NC(=O)c1ccc2c(ccn2C)c1)C(=O)NCC#N	-4.17
Cc1nnc(SCC(=O)N2CCN(Cc3ccccc3)CC2)c2nn(-c3ccccc3)c(C)c12	-9.92
CCn1cc(C(=O)N(C)Cc2ccccc2)c2cc(OC)c(OC)cc2c1=O	-1.73
CC(C)(C)c1ccc(S(=O)(=O)N2CCSC2)cc1	-3.49
O=C(O)c1ccc(COc2ccccc2Cl)cc1	-5.31
CC1CCCC(C)N1CC#CC(C)(C)O (centres unmarked)	-2.66

— paper PMC6919601, “Identification of Plasmodium dipeptidyl aminopeptidase allosteric inhibitors by high throughput screening” (PLoS ONE, 2019)
